Reference: PubChem BioAssay (NCI)
Some compounds were tested as several samples or in several runs, with calls that do not always agree.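 The endpoint reported here, percent growth, reads 100 for growth as untreated, 0 for no net growth and -100 for all cells dead.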 Certain results were filed several times, with different values. The list is limited to them. The calls were made as follows: active = growth percent below 10; inactive = the rest. An entry can have further records. The screen tested this drug many times, at its own concentration, as given; each value is one run. Counts like (3×) give the number of equal values in this list.

Experiments:
HCT-15 colon = assay: NCI-60 one-dose screen, 48 h (100 = growth as untreated, 0 = no growth, -100 = all killed); settings: 25 µM
HT29 colon = assay: as above; settings: 0.25 µM

SMILES: COc1cccc2c1C(=O)c1c(O)c3c(c(O)c1C2=O)C[C@@](O)(C(=O)CO)C[C@@H]3OC1CC(N)C(O)C(C)O1 (stereo not given in full)
- growth (HCT-15 colon; runs of 1995): active: 6.68, -8.25, -19.4, 2.13, 7.78, -27.4, 3.76, -17, -8.5, 1.54, -11.6, -16.8, -14.5, 7.83, 5.32, -43.7, -14.7, 1.01, 3.72, 2.83, -40.4, -41.5, 2.38, -18.1, 1.82, -9.49, 3.84, 3.74, 0.61, -24.5% and inactive: 10.2, 17.5, 10.7, 19.7, 17.7, 20.7, 13.7, 10.9, 11.1%
- growth (HCT-15 colon; runs of 1996): active: 4.27, 5.48, -8.75, 8.04, 7.93, 9.26, -36.5, 4.45, 7.18, 5.25, -19.5, 6.91, 6.99, -12.6, 3, -59.5, 6.08, 8.84, 8.63, -11.5 (2×), -11.6, 0.0972, -20, -7.22, -28.7, 1.7, 3.75, 0.279, -10.7, -8.28, -31.6, -7.89, -13.1, -26.4, -14.2, -29.4, -6.25, 0.552, -4.67, 4.6, -5.19, -27.1, 8.53, 1.12, -9.28, 0, 2.4, 1.33, 1.36, 7.73% and inactive: 28.2, 12, 18.2, 91.7, 12.9, 11.3, 38.9, 14.7%
- growth (HCT-15 colon; runs of 1997): active: 5.75, 4.46, 6.6, 7.96, -24.5, -30.5, -5.04, -0.769, -9.92, -20.5, -1.72, 4.54, -8.49, -23.7, -0.881, -25.8, -1.53, -15.2, -18.4 (2×), -38.5, -23, 0.981, -2.4, 1.06, 6.75, 1.55, 4.44, 6.02, -21.8 (2×), -0.752, 6.87% and inactive: 10.6, 13.6, 14.3, 12.9, 14.9, 25.7, 12.1, 17.1, 28%
- growth (HCT-15 colon; runs of 1998): active: 5.94, -16.4 (2×), 8.17, -30.9, -2.39, 3.81, 1.23, -20.6, -3.38, -26.5, 6.61, -11.1, 3.88, -9.86, 3.3, -24.4, 0.996, -6.43, 8, -1.69, -40.7, 0.677% and inactive: 11.3%, 12.2%, 19.4%
- growth (HCT-15 colon; runs of 1999): active: -13.4, -9.08, 3.11, 6.07, -4.6, -14.2, -100, -83.1, 0.914, 0.0912, 4.91, 1.47, 1.35, -34.8, -92.4, 2.56, 1.41, 2.2%
- growth (HCT-15 colon; runs of 2000): active: -100% (2×), 1.06%, -30.1%
- growth (HT29 colon; runs of 2006): inactive: 41.7%, 62.7%
- growth (HT29 colon; runs of 2007): inactive: 50.2, 55.5, 37.8, 50.9, 49.6, 60.2, 45.1, 49.5, 47.7, 48.3, 50.1, 46.4, 47.1, 58.6, 77.2, 66.6 (2×), 57.4, 48.6, 55.1, 49.1, 57.2, 57.1, 69.7, 76, 61.2, 52.7, 14.6, 57.3, 59.9, 60 (2×), 60.7, 64.3, 45, 59.1, 45.6, 46.1, 47.5, 59.2, 59.8%
- growth (HT29 colon; runs of 2008): inactive: 58.5 (3×), 52.8, 57.7, 47.7, 47.9, 53.7, 53.5, 46.2, 56.1, 60.3, 63.5, 59.8, 31.4, 45.6, 41.6, 46.4, 45.9 (2×), 39.3, 38.4, 34.9, 37.2, 50.2, 48.7, 95.6, 46.8, 28, 33.7, 45.5, 23.9, 23.3, 42.4, 35.6, 38.1, 34.1, 43.8, 41, 55.3, 54.3, 54.9, 53.6, 49.4, 55.6, 63.8, 58.7, 45.4, 44.7, 49.2, 40.9, 47% and active: -16%, -62%
- growth (HT29 colon; runs of 2009): inactive: 43.1, 48.7 (2×), 48.3 (3×), 44.7, 40.3, 38.2 (2×), 49.4 (2×), 46.4, 51.8, 45.4, 55.5, 46.9, 47.7, 46.6, 50.7, 47.5, 37.5, 43.8, 41.9 (2×), 40.7, 33.8, 47.8, 48.5, 57.7, 53.3, 49.3, 63.9, 55.1, 41.7, 43.9, 45.8, 54.9, 50.5, 46.1, 43.4, 49.2, 55.3, 54.1, 56.5, 23.5, 64.4, 53.7, 35.8 (2×), 42.4, 41.1, 28.2, 43.2 (3×), 39.6, 33.4, 31.1, 45.1, 41.2, 32.5, 44.6, 45.5, 42.2, 40.2%
- growth (HT29 colon; runs of 2010): inactive: 65, 44.2, 39.8, 45.6 (2×), 31.6, 57.2, 50.6, 45.1, 42.9 (2×), 41.5 (2×), 37.9 (2×), 39.4, 36.8, 48.7, 49.4 (2×), 30.7, 42.3, 37.5, 31.3, 48.8, 33.9, 32.9, 27.8, 44.7, 37.7, 40.4, 36, 23.9, 39.9, 30.1, 42.7, 46.5, 46.6, 47.9, 45.5, 49.1, 51.4, 47.7, 43.5, 40.6, 47.3, 53.6, 38.5, 46.7, 39.6%
- growth (HT29 colon; runs of 2011): inactive: 44.9, 40.8, 37.5 (2×), 44.6, 51.1, 64, 49.6, 40.3, 34.4, 45.4 (2×), 52 (3×), 43.9, 46 (3×), 46.5, 61, 58.6 (2×), 61.1, 54.8, 57.3, 52.1, 56 (2×), 53.1, 55.8, 45.8, 46.4, 55.5, 44.5, 43.1, 58.4, 41.5, 42.9, 46.7, 46.2, 39.2, 62.5, 53.9 (2×), 44.4, 41.1, 36.7, 42, 41.7, 46.6, 49.1, 54.4, 58%
- growth (HT29 colon; runs of 2012): inactive: 52.6 (2×), 38, 47.9 (2×), 48.6, 43.4, 48, 51.8 (2×), 54.4 (2×), 57.3, 42.3, 39.7, 43.9, 48.5, 39.4, 41.5, 35.8, 35, 39, 41.2, 42.2, 42.6, 45.8, 47.4, 54.9, 55.8 (2×), 62.1, 58.7, 54.1, 55.3, 56.2, 68.1, 60.6, 58, 53.3 (2×), 50.2, 55.1, 42.1, 59, 53.1, 68.5, 62, 61.6, 64.2, 57.7, 67.5, 70.9, 63.8, 63, 51.1, 41.9, 50, 51.6, 51.3, 50.5, 62.3, 59.3, 53.4, 48.4, 47.1, 47.3, 56.8, 59.4%
- growth (HT29 colon; runs of 2013): inactive: 48.7, 64, 57.5, 52.6, 56.5, 59.2, 64.6, 54.4, 58.6, 66.5, 69.4, 58.5 (3×), 66.2 (2×), 55.6, 60.3 (2×), 57.6, 62.3, 64.4, 56.3 (2×), 67.4 (2×), 73.4, 89.6, 57, 66.9 (2×), 64.5, 65.9, 66.6, 60.2, 62.9, 68.6, 69.8, 71.5, 62.2, 66, 60.7, 58, 67, 58.7 (2×), 64.3, 57.3, 60.5, 61 (2×), 67.3, 57.4, 65, 68.7, 68.5, 58.4, 50.9, 52.1, 55.3, 49.5, 50.2, 53.7, 49.9, 54.8, 57.1, 58.1, 61.1, 45.7, 47.9, 49.4%
- growth (HT29 colon; runs of 2014): inactive: 50.5, 55.5 (2×), 57.1, 56.8, 60.4, 55.2, 39.7, 24.7, 44, 47.5 (2×), 52.1, 54.8 (2×), 48.3, 51.6, 52.8, 55, 58.7, 59, 52.7 (3×), 56, 48.7, 49.3, 51.1, 52.2 (2×), 46.1, 46.5, 47.7, 49.5 (2×), 46.2, 45, 43.8 (3×), 46.9, 48.2, 49.9, 52.6 (2×), 44.6 (2×), 52.4, 49.1, 53.7, 50.6, 41.2, 39.3, 40.5, 47, 42.1, 44.2, 31.8, 28, 51.8, 20.3, 39.8, 48.8, 23.8, 41.3, 42.8, 43.3, 36.7, 36.2, 47.8, 37.7, 37.3, 49.2, 45.6, 47.3, 44.9, 33.8, 33.5, 38.5, 40.7%
